Lines with a small IC50 respond at low doses; where the fit passes the top or lowest dose, that dose stands as a limit. For AUC the same curve is integrated over the 256-fold range of doses and scaled to a fraction; it is 1 without any effect and falls as sensitivity rises. For part of these data: Any top dose called inferred is not printed in the source and was worked back from the curve model. For part of these data: Drugs with an entry number were screened twice under separate entries, and the two screens often disagree.
Experiments:
Test in all cases: Viability of human cancer cell lines after 72 h of drug (GDSC screen)
MG-132 = compound: CC(C)C[C@@H](C=O)NC(=O)[C@H](CC(C)C)NC(=O)[C@H](CC(C)C)NC(=O)OCc1ccccc1 [MG-132]; conditions: top dose 1 µM
Experimental: (§1)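 Human cancer cell lines in 384-well plates, medium with 10% serum, drug for 72 h over a 256-fold dose range (nine 2-fold or five 4-fold steps up to the top dose). Adherent lines were fixed and stained with the nucleic acid dye Syto60, suspension lines read with resazurin; signal relative to control wells, capped at 0 and 100%. One two-parameter sigmoid per drug and line, fitted in a mixed model over all curves with the slope shared within a line.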

GDC0941 = compound: CS(=O)(=O)N1CCN(Cc2cc3nc(-c4cccc5[nH]ncc45)nc(N4CCOCC4)c3s2)CC1 [GDC0941]; conditions: top dose 4 µM; screen: GDSC drug entry 1527; top dose inferred
Experimental: as §1

AR-42 = compound: CC(C)[C@H](C(=O)Nc1ccc(C(=O)NO)cc1)c1ccccc1 [AR-42]; conditions: top dose 5.12 µM; top dose inferred
Experimental: as §1

CEP-701 = compound: C[C@]12O[C@H](C[C@]1(O)CO)n1c3ccccc3c3c4c(c5c6ccccc6n2c5c31)CNC4=O [CEP-701]; conditions: top dose 2 µM; top dose inferred
Experimental: as §1

Sunitinib = compound: CCN(CC)CCNC(=O)c1c(C)[nH]c(/C=C2\C(=O)Nc3ccc(F)cc32)c1C [Sunitinib]; conditions: top dose 8 µM
Experimental: as §1

Pazopanib = compound: Cc1ccc(Nc2nccc(N(C)c3ccc4c(C)n(C)nc4c3)n2)cc1S(N)(=O)=O [Pazopanib]; conditions: top dose 8 µM
Experimental: as §1

SB 216763 = compound: Cn1cc(C2=C(c3ccc(Cl)cc3Cl)C(=O)NC2=O)c2ccccc21 [SB 216763]; conditions: top dose 10 µM; top dose inferred
Experimental: as §1

Row | Cell Line | AUC (MG-132) | IC50 (MG-132) [nM] | AUC (GDC0941) | IC50 (GDC0941) [nM] | AUC (AR-42) | IC50 (AR-42) [nM] | AUC (CEP-701) | IC50 (CEP-701) [nM] | AUC (Sunitinib) | IC50 (Sunitinib) [nM] | AUC (Pazopanib) | IC50 (Pazopanib) [nM] | AUC (SB 216763) | IC50 (SB 216763) [nM]
1 | HD-MY-Z (Hodgkin lymphoma, adherent) | 0.724 | 271 | 0.891 | > 4000 | 0.552 | 443 | 0.358 | 50.4 | 0.85 | 6140 | 0.979 | > 8000 |  | 
2 | KALS-1 (glioma, adherent) | 0.744 | 416 | 0.772 | 2150 | 0.66 | 1060 |  |  | 0.884 | > 8000 | 0.958 | > 8000 |  | 
3 | KARPAS-231 (B-cell leukaemia, suspension) | 0.803 | 367 | 0.916 | 3500 |  |  | 0.311 | 42.5 | 0.767 | 2340 | 0.854 | 4170 | 0.987 | > 10000
4 | KM12 (large intestine, adherent) | 0.743 | 334 | 0.984 | > 4000 | 0.653 | 886 |  |  | 0.476 | 429 | 0.941 | > 8000 | 0.966 | > 10000
5 | LB996-RCC (kidney, adherent) | 0.881 | > 1000 | 0.64 | 653 | 0.74 | 1770 |  |  | 0.762 | 3300 | 0.941 | > 8000 |  | 
6 | MHH-NB-11 (neuroblastoma, adherent) | 0.867 | > 1000 |  |  | 0.288 | 75.3 | 0.701 | 490 | 0.91 | > 8000 | 0.985 | > 8000 | 0.9 | > 10000
7 | MOLP-8 (myeloma, suspension) | 0.721 | 258 |  |  | 0.211 | 47.3 | 0.531 | 151 | 0.761 | 2740 | 0.972 | > 8000 | 0.987 | > 10000
8 | MZ7-mel (melanoma, adherent) | 0.723 | 276 | 0.92 | > 4000 | 0.361 | 130 |  |  | 0.871 | 7990 | 0.958 | > 8000 |  | 
9 | NCI-SNU-16 (stomach, suspension) | 0.874 | 780 |  |  | 0.815 | 2410 | 0.757 | 615 | 0.703 | 1720 | 0.976 | > 8000 | 0.979 | > 10000
10 | NEC8 (testis, adherent) | 0.572 | 95.2 | 0.851 | 2380 | 0.278 | 84.3 | 0.638 | 282 | 0.95 | > 8000 | 0.926 | > 8000 |  | 
11 | NTERA-2 cl.D1 (testis, adherent) | 0.501 | 62.8 |  |  | 0.618 | 671 | 0.644 | 312 | 0.824 | 4700 | 0.843 | 5610 | 0.957 | > 10000
12 | OPM-2 (myeloma, suspension) | 0.609 | 117 |  |  | 0.32 | 112 | 0.791 | 723 | 0.805 | 3170 | 0.969 | > 8000 | 0.994 | > 10000
13 | RCC10RGB (kidney, adherent) | 0.943 | > 1000 |  |  | 0.786 | > 5120 | 0.828 | > 2000 | 0.96 | > 8000 | 0.915 | > 8000 | 0.953 | > 10000
14 | RL95-2 (endometrium, adherent) | 0.857 | 803 | 0.925 | > 4000 | 0.471 | 267 | 0.375 | 56.8 | 0.733 | 2290 |  |  | 0.987 | > 10000
15 | SCC-15 (head and neck, adherent) | 0.974 | > 1000 | 0.556 | 375 | 0.671 | 1140 |  |  | 0.871 | > 8000 | 0.935 | > 8000 |  | 
16 | SIMA (neuroblastoma, adherent) | 0.96 | > 1000 | 0.909 | > 4000 | 0.679 | 1080 | 0.693 | 471 | 0.98 | > 8000 | 0.954 | > 8000 |  | 
17 | SK-LMS-1 (soft tissue, adherent) | 0.675 | 187 | 0.467 | 204 | 0.342 | 119 | 0.274 | 29.7 | 0.821 | 4330 | 0.962 | > 8000 |  | 
18 | SK-MM-2 (myeloma, suspension) | 0.72 | 272 |  |  | 0.582 | 543 | 0.929 | > 2000 | 0.853 | 6720 | 0.966 | > 8000 | 0.987 | > 10000
19 | SW954 (urogenital system, adherent) | 0.898 | > 1000 |  |  | 0.39 | 159 | 0.633 | 293 | 0.823 | 4780 | 0.859 | 6790 | 0.909 | > 10000
20 | TC-71 (Ewing sarcoma, adherent) | 0.917 | > 1000 | 0.703 | 829 | 0.397 | 176 |  |  | 0.99 | > 8000 | 0.971 | > 8000 |  | 
21 | TE-10 (oesophagus, adherent) | 0.724 | 266 | 0.745 | 1240 | 0.979 | > 5120 |  |  | 0.734 | 2290 | 0.988 | > 8000 |  | 
22 | WIL2-NS (lymphoid neoplasm, suspension) | 0.763 | 298 |  |  | 0.181 | 45.5 | 0.69 | 378 | 0.775 | 2590 | 0.922 | > 8000 | 0.965 | > 10000
